The record followed here is the BET-seq Pho4 binding data (Le et al. 2018).

The other results are listed elsewhere or left out. The energies were worked out here from pooled read counts, against the library average; single values are noisy.

For this test, the target named is T1, Pho4 (S. cerevisiae) (UniProt P07270).
T1 sequence: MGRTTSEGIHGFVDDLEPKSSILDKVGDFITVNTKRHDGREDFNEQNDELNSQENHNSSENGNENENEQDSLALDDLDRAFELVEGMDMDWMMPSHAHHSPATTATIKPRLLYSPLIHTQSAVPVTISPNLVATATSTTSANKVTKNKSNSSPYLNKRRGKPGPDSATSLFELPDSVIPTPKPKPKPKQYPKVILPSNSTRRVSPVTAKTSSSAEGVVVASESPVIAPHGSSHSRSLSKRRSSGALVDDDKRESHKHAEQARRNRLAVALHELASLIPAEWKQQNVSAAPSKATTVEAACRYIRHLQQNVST
The experiment in a line: relative binding free energy (BET-seq); higher = weaker binding. To be noted: reference: library average.
As for TTTATCACGTGGCGGG, the “relative binding free energy” value worked out at 0.1 kcal/mol.
Regarding GTAGTCACGTGGGTAA, the “relative binding free energy” value is 0.13 kcal/mol.
For AAGGTCACGTGTGTGT the value was 0.22 kcal/mol.
Under AAGTGCACGTGTTGGA stands -0.04 kcal/mol.
Consider ATTATCACGTGTGTTC, for which the “relative binding free energy” value was 0.18 kcal/mol.
For TCTGGCACGTGTTAGA the value was 0.04 kcal/mol; for CTAGGCACGTGTAGTT, 0.07 kcal/mol; for CGGTTCACGTGTCGTA, 0.18 kcal/mol.
Under GAAGTCACGTGGTAGG stands 0.02 kcal/mol; under GTGTACACGTGATAGG, 0.21 kcal/mol; under GACGTCACGTGGGGTG, -0.07 kcal/mol.
Take TGTTACACGTGATGGA: the “relative binding free energy” value is 0.23 kcal/mol.
For GAGGGCACGTGTAGTA the value was -0.12 kcal/mol; for ATTCACACGTGGGGCT, -0.06 kcal/mol.
For the sequence TTTGGCACGTGCAAGT, the “relative binding free energy” value is -0.17 kcal/mol.
For AGTTACACGTGTGTGT the value was 0.05 kcal/mol; for GTCGGCACGTGGCGGT, -0.14 kcal/mol; for GCTCTCACGTGAGGGG, 0.39 kcal/mol.
Under GTAATCACGTGATGGT stands 0.35 kcal/mol.
For TGAAACACGTGTCGGT the value was 0 kcal/mol.
TGAGACACGTGTTGTT: the “relative binding free energy” value came out at 0.01 kcal/mol.
Turning to GTAGACACGTGAGGTA, the “relative binding free energy” value was determined as 0.34 kcal/mol.
Under TGGGACACGTGACGGT stands 0.17 kcal/mol; under ATGAGCACGTGGGCTA, -0.06 kcal/mol; under TCTGACACGTGTGGGA, -0.06 kcal/mol.
Under TCAGTCACGTGGTTGA stands 0.11 kcal/mol; under TGAAGCACGTGGGAAG, -0.1 kcal/mol.
For AAGTTCACGTGTAATT the value was 0.29 kcal/mol; for ATTTTCACGTGGGCTC, 0.16 kcal/mol; for CTCGTCACGTGCGGTG, -0.03 kcal/mol.
As for AGAGCCACGTGGGGGG, the “relative binding free energy” value is -0.21 kcal/mol.
For AGTGGCACGTGTCGTG the value was -0.07 kcal/mol.
Under AGGAACACGTGGTGTG stands -0.14 kcal/mol.
Under GATGTCACGTGTAGAT stands 0.32 kcal/mol; under GGCGGCACGTGGAGGG, -0.11 kcal/mol; under CATGGCACGTGATTAG, 0.01 kcal/mol.
On to TAGTGCACGTGGATAG, for which the “relative binding free energy” value stood at 0.05 kcal/mol.
For GTGTTCACGTGGAACT the value was 0.24 kcal/mol.
Under CTCTGCACGTGATGGT stands 0.13 kcal/mol; under GGCGCCACGTGGGCTG, -0.21 kcal/mol.
Under GGTGTCACGTGTTGGG stands 0.24 kcal/mol; under AATAACACGTGGGGGG, -0.15 kcal/mol; under CTTGGCACGTGAGGCG, 0.06 kcal/mol.
With TATGACACGTGGGCGT, the “relative binding free energy” value is -0.27 kcal/mol.
Under GGGTTCACGTGGGAAT stands 0.43 kcal/mol.
For AGGTTCACGTGAGACG, the “relative binding free energy” value came to 0.22 kcal/mol.
For ATTGGCACGTGGCGTA the value was -0.17 kcal/mol; for ATGGTCACGTGTGCTT, 0.12 kcal/mol.
For TTAATCACGTGAGCTT the value was 0.25 kcal/mol.
For GAGAACACGTGATGGT the value was 0.18 kcal/mol; for GGGGACACGTGTTTTA, 0.18 kcal/mol.
For the sequence TGTCACACGTGAGGGA, the “relative binding free energy” value came out at 0.18 kcal/mol.
As for CAATTCACGTGATGTG, the “relative binding free energy” value is 0.21 kcal/mol.
Under GGTGTCACGTGTCTGA stands 0.3 kcal/mol; under GGAGCCACGTGGGGGA, -0.23 kcal/mol.
For TTGTGCACGTGGACGT the value was 0.01 kcal/mol; for TAATTCACGTGTTTCG, 0.24 kcal/mol; for ATGGGCACGTGGATAT, -0.21 kcal/mol.
On to GGTTACACGTGCTGCG, for which the “relative binding free energy” value was found to be 0.15 kcal/mol.
Under TTTGACACGTGAAGGA stands 0.26 kcal/mol; under GTGCACACGTGATTGG, 0.16 kcal/mol.
For GAGGTCACGTGGATGC the value was 0.1 kcal/mol; for TGTGGCACGTGCGATC, -0.01 kcal/mol.
For TTAGGCACGTGGACGA the value was -0.09 kcal/mol; for TAAGACACGTGTATTT, 0.06 kcal/mol; for CTGTACACGTGTGGAT, 0.1 kcal/mol.
As to TTGGACACGTGACGGG, the “relative binding free energy” value was found to be 0.17 kcal/mol.
Take TGAGTCACGTGGATAT: the “relative binding free energy” value was found to be 0.18 kcal/mol.
On to AGATTCACGTGCTGTT, for which the “relative binding free energy” value was 0.17 kcal/mol.
Take AGGGTCACGTGGGTTA: the “relative binding free energy” value was found to be 0.08 kcal/mol.
For CTGATCACGTGTGGAT the value was 0.33 kcal/mol; for GTGAACACGTGTTTGA, 0.01 kcal/mol; for AAATACACGTGGGGTT, 0.1 kcal/mol.
Under GTGCGCACGTGGGTGT stands -0.31 kcal/mol; under TAGTACACGTGTGTGG, 0.14 kcal/mol; under GTACTCACGTGAAGGG, 0.36 kcal/mol.
For GGTGTCACGTGAGCAA the value was 0.34 kcal/mol; for ACGTGCACGTGTAGTT, -0.02 kcal/mol.
Turning to GATAACACGTGGTTAT, the “relative binding free energy” value was -0.02 kcal/mol.
For TTATTCACGTGATACG the value was 0.18 kcal/mol; for GATTGCACGTGGAAAG, 0.19 kcal/mol; for GTGACCACGTGGATGG, -0.06 kcal/mol.
For TGGGCCACGTGGTAAG the value was -0.16 kcal/mol.
For TATTGCACGTGAGATT the value was 0.17 kcal/mol.
Consider GTTTGCACGTGGTTGC, for which the “relative binding free energy” value was -0.14 kcal/mol.
For GGAGCCACGTGGTGTA the value was -0.05 kcal/mol.
For AGGGCCACGTGGGCTG the value was -0.35 kcal/mol; for AGTATCACGTGTTAAG, 0.07 kcal/mol.
Turning to GCTTTCACGTGGAGTT, the “relative binding free energy” value came out at 0.39 kcal/mol.
Under TGTTTCACGTGTCGCA stands 0.3 kcal/mol; under GGTCGCACGTGATTTA, 0.21 kcal/mol.
For TCACTCACGTGGTGTG the value was 0.06 kcal/mol; for GTATGCACGTGTGGTT, 0.04 kcal/mol.
Under GTTAACACGTGATAGT stands 0.13 kcal/mol.
As to TGGTCCACGTGGGGAA, the “relative binding free energy” value was -0.13 kcal/mol.
Under GCAGGCACGTGGAGGT stands -0.17 kcal/mol; under AGAGTCACGTGTCGGG, 0.1 kcal/mol.
Under CGCAACACGTGTGGGG stands 0.15 kcal/mol; under GGTGACACGTGCGGGC, 0.05 kcal/mol; under GTAGTCACGTGCGCGG, -0.07 kcal/mol.
For AAATTCACGTGGGGAG the value was 0.15 kcal/mol; for CTAGGCACGTGAGGCG, 0.1 kcal/mol.
Regarding ATTGTCACGTGGTGAT, the “relative binding free energy” value came to 0.07 kcal/mol.
Under TATGTCACGTGAGTAA stands 0.22 kcal/mol.
Turning to GATGCCACGTGAGGGC, the “relative binding free energy” value was found to be 0.38 kcal/mol.
On to AGGTACACGTGGGCTT, for which the “relative binding free energy” value is -0.03 kcal/mol.
Under TGCGGCACGTGAGGGC stands 0.03 kcal/mol; under GTCTACACGTGGGTGG, 0.02 kcal/mol; under CTTTGCACGTGGCAGG, -0.06 kcal/mol.
Under GTAGACACGTGAAAGG stands 0.43 kcal/mol; under CAGGTCACGTGGGGTT, 0 kcal/mol.
For GGGAACACGTGGGCGT, the “relative binding free energy” value was -0.21 kcal/mol.
For GGTTTCACGTGGTTTC the value was 0.28 kcal/mol.
On to AGCGTCACGTGGGGTG, for which the “relative binding free energy” value is -0.05 kcal/mol.
For GGTAGCACGTGGGCCG the value was -0.08 kcal/mol.
